Reference: publication PMC12136788
The other results are listed elsewhere or left out.

T1: UNK ZnF1-3 (human, UniProt Q9C0B0 31-174)
T1 sequence: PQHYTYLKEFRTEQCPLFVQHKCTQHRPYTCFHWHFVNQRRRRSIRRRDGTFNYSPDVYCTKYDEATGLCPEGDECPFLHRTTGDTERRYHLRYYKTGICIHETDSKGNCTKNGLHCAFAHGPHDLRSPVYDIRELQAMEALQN

B1: 5657272_5661565_1924_CDS_ENSG00000160633_ENST00000592224|human|control|control (ssRNA)
RNA: GGGAGUUCUACAGUCCGACGAUCCAUGCGUUGUUCGCGUUCACUGCGUUCACGCACCCUAUGGGACUCUGAGUCUCUUGACUUCCGAGGCUCCUUGACCUUAUCAAAGGACACGACGGACCGCUUCUCUCUGCUGGCUGAUUUCAACAGAGGAUUGAGCAUCA
B2: chr4:76721835:76721836:+_ENSG00000138768_ENST00000264904|hu_mus|hu_hu_hu_mus_True|8_48 (ssRNA)
RNA: GGGAGUUCUACAGUCCGACGAUCGUUUGGCUGGGGUUUCUGAGACGCUCUGGAAUAUAACUCAUGUUUGCUAAUAAAUCCUAGUUUUCUAUGAAAUUUCUCUUUGCCAAUCCUCUUCUCUAUUAGUGUUUUAGCUUUCUCUUUCAACAGAGGAUUGAGCAUCA
B3: chr12:110929859:110929860:-_ENSG00000111237_ENST00000549970|hu_mus|FALSE|FALSE (ssRNA)
RNA: GGGAGUUCUACAGUCCGACGAUCCUGGCUUUACGACUUUUUAUACUCAAUUCGUUCUACUUUGACGUCAUCUCCAAUUAGUUGAUAGACGUAAGUGACCACAGUAGAAGCCUGGAUGUCCAUCAGCACAAACGAUGGAAUAAUCAACAGAGGAUUGAGCAUCA
B4: chr5:33459820:33459821:+_ENSG00000113407_ENST00000502553|hu_hu|FALSE|FALSE (ssRNA)
RNA: GGGAGUUCUACAGUCCGACGAUCCCAGAGUCGGCUGUUGAAGAUGUUUGGGGUGACUACCUCCUGGAAUCCUCUUUUCCUAUAUUCGCUCCUAAUGAAUUCAAUAAGUGCAUUAUAAAUGUAGGCUCCUUUUGGCAGAAAAAACAACAGAGGAUUGAGCAUCA
B5: chr2:37458628:37458629:-_ENSMUSG00000026915_ENSMUST00000072186|mus_hu|motif|central (ssRNA)
RNA: GGGAGUUCUACAGUCCGACGAUCCUUAUACUGAAGCCCAGGCCUGAUCUGAUUUAGCCUCAUUAGUGCAUUCAUAAGGUCGGUUGCUUUACUAUCCAGAAUUUUCCUUAAGUUUCGUUUCAUCUUCUUGUUGGGGUCUUUAUCCAACAGAGGAUUGAGCAUCA
B6: chr6:36759976:36759977:-_ENSMUSG00000029838_ENSMUST00000101534|mus_hu|FALSE|FALSE (ssRNA)
RNA: GGGAGUUCUACAGUCCGACGAUCUCAGUCUGCCUUUGUUGCAAGGGGCGAGGUUGCUACCGCUGAGUCCAGGUACCCGGCUCGCUGCAGCUCCUGCUUGGGCCGCUGCUGCUCUCCCCGCCUUCUGGACGGAUGACUCACUGGCAACAGAGGAUUGAGCAUCA
B7: chr1:120444466:120444467:+_ENSMUSG00000064302_ENSMUST00000049404|mus_mus|FALSE|FALSE (ssRNA)
RNA: GGGAGUUCUACAGUCCGACGAUCAAGGACGAAGAGCCAGUCUUGCAAGUCAUCCUUAUGAAUGAUUAUAAAAUCCACGAGGGUCUCCAAAAACAUACUGAAAACUCUCUUGCUGUGAGGGUCGGCAAACAUUCGGGUGAAAAUCAACAGAGGAUUGAGCAUCA
B8: 78798051_78798171_2646_CDS_ENSMUSG00000033088_ENSMUST00000109689|mouse|control|control (ssRNA)
RNA: GGGAGUUCUACAGUCCGACGAUCAGGUGGGGAAGAGGCGCGAGGUGCGUCCCGGUGCCCGAUGCACACAGUGCAGGGUGGCUGAGAGGACUCCAAAGAGGUCUGGGGAGCCCCUCGAGGUGCUGCGUGAAGAGGCGAUGAAGUCAACAGAGGAUUGAGCAUCA
B9: chr7:72892646:72892647:-_ENSG00000009954_ENST00000339594|hu_mus|FALSE|FALSE (ssRNA)
RNA: GGGAGUUCUACAGUCCGACGAUCUUUGUCACUGUGCUUCCCUGGCUUCUUGGCGGCUGGGCCUUUCUUAGGAAUGUGGAAGCUGUGUAGCUUGUUGUUGUUGGGGGACAUAAUUUUCAUCACCCCUUCCAAAUGUUCUUCCGGCAACAGAGGAUUGAGCAUCA
B10: chr5:29673426:29673427:-_ENSMUSG00000010721_ENSMUST00000055195|mus_mus|motif|central (ssRNA)
RNA: GGGAGUUCUACAGUCCGACGAUCAUUGCUGAUGAUUGAGAAGGGUAAAAGCAAAACCGCGCCAGCUGACACGGCGGGAGUGAAGGUGCUCAGAAACAACGAUAUCCUGUUGACUACAGCAUCCUCAUCUUCUUGUUCAUCGGACAACAGAGGAUUGAGCAUCA
B11: chr7:141438946:141438947:+_ENSG00000106028_ENST00000265304|hu_mus|hu_hu_hu_mus_True|1_1 (ssRNA)
RNA: GGGAGUUCUACAGUCCGACGAUCGACGAAAUACCUGUAACACAGGUCUUCGAAACAUGGCUUCUGUUUUUCUUACAACCUAAUCUUUAGGCUUUUCCUAAAGGAAAGAAAGAAAAGAGAAAAAUGAUAAAUCAAGAACUUCCGCAACAGAGGAUUGAGCAUCA
B12: chr7:54823571:54823572:-_ENSG00000132432_ENST00000352861|hu_mus|hu_hu_hu_mus_False|8_58 (ssRNA)
RNA: GGGAGUUCUACAGUCCGACGAUCUCCCAUGAUAGCAAAUCCUAUAGCUGUAGCCAUGGCAAUCUUCUGGAAUUCUUUUCUAUCAGGUUUGGUGCAUCUUUUAACCAGCCGAAUUGAGUCCUUUACAAACUGCCGACUGGGCUCCAACAGAGGAUUGAGCAUCA
B13: chr1:63100574:63100575:-_ENSG00000116641_ENST00000251157|hu_hu|FALSE|FALSE (ssRNA)
RNA: GGGAGUUCUACAGUCCGACGAUCAGCAGGUGGUACAUGUGGACGUAACAACCCUUUCAUCUGCUCAGAAUUAAGGUCAAAAUAAAAGUUUUCUGAAAUCUUUUUCUUUUCCUUGACAUCAUAUAAAGCCAAACUUGCAAAAAUCAACAGAGGAUUGAGCAUCA
B14: chr3:69361433:69361434:+_ENSMUSG00000027784_ENSMUST00000029355|mus_mus|motif|central (ssRNA)
RNA: GGGAGUUCUACAGUCCGACGAUCCACCCAUAGAUCUAUCUGGGCUACUUGUUACAGCUGCCCAUCUCUUCCCCCUCCCCGGAAAAAAAGCCACAGACAAACAAACUGACAAGGCAGAGGAUAACGUCUAGGGAAAUAUGGCCACAACAGAGGAUUGAGCAUCA
B15: chr15:51674161:51674162:-_ENSMUSG00000022312_ENSMUST00000022925|mus_hu|FALSE|FALSE (ssRNA)
RNA: GGGAGUUCUACAGUCCGACGAUCUUGAACAACUUCAGUUCCUUGUCCUUCUUCUUGAUAAUGUUUGAUUAUCUUUAAUACCACAAGGCCAUCUAUCUGCACUUGCUUCACGGCUGAAUCUCCCGAGCCGCCUUUGCCUUUGCCCAACAGAGGAUUGAGCAUCA
B16: chr11:77376804:77376805:-_ENSG00000048649_ENST00000308488|hu_hu|motif|central (ssRNA)
RNA: GGGAGUUCUACAGUCCGACGAUCAAUGAAUUUUAAUAGAAGUCUAAUGGCCAAAGGCCAAAACUACAUUCAAACUCUGCGGAUAUAUCCAGGCAGAUAGGAAAUUCCAACACACACACACACGCACACGCACACACACAAACACAACAGAGGAUUGAGCAUCA
B17: chr7:99593380:99593381:+_ENSMUSG00000052572_ENSMUST00000098308|mus_hu|FALSE|FALSE (ssRNA)
RNA: GGGAGUUCUACAGUCCGACGAUCGGUGAGGAGGCUCUCAUCUCAUCUCUUGGGCAGAAAGCCCGUCAGAGGUUCAUCCCUACACCUGGCACUUUGAGCAAACCAAAGCCUUCCUUCAUACUGCAAUGUCUUUUCUGUCCCACCCAACAGAGGAUUGAGCAUCA
B18: 17222295_17222415_1178_CDS_ENSMUSG00000017485_ENSMUST00000017629|mouse|control|control (ssRNA)
RNA: GGGAGUUCUACAGUCCGACGAUCGGCCACAAUGUCCUUGUCAAGUUUUUCCAUCUUAAAUUUGGAUAGAUCUGGCUGGAAUGUUAUGCAUGUAUAAUCUUCACCAUCAAAAUGUUUAAUUUUGGCUUCAGAAGUCUUCAUCAUCAACAGAGGAUUGAGCAUCA
B19: chr20:39729905:39729906:+_ENSG00000198900_ENST00000361337|hu_mus|FALSE|FALSE (ssRNA)
RNA: GGGAGUUCUACAGUCCGACGAUCAUAUUUGAUAGAACCUUGGAUAUUCUCUGUCCAGGAGACCAGCCAAGUAACCUUGUUAUCAUGUCGGACUUCCUUCCAUUUAUGUCCAGGAGGGGGAGAAGGAACCUUUGCGUCUUUGCUCAACAGAGGAUUGAGCAUCA
B20: 21267519_21269584_1405_CDS_ENSMUSG00000029014_ENSMUST00000030771|mouse|control|control (ssRNA)
RNA: GGGAGUUCUACAGUCCGACGAUCCAUCUGCUCAUUCACUUCUUCUAUCUGUUUUUCAAGUGCAGCUUUUCCUACUUCUCUCGUAGAUGAAGCCAGGAUUUCAUUCAAGCCCUGCAAGCUUGCUAGUUCAAGCCGAUCACAGAGCAACAGAGGAUUGAGCAUCA
B21: chr9:75491700:75491701:-_ENSMUSG00000032181_ENSMUST00000034699|mus_hu|FALSE|FALSE (ssRNA)
RNA: GGGAGUUCUACAGUCCGACGAUCAUAAAUGCGCUUGAUGGCCUCGGCUUCUUCCUUGUCAAGGAUGCCUUUCUCCACAUAAGCAUCAGCUUGUUUAUUGAUGAAGUCUCUCAUCUUUGAAAGGUCAUAAUCUUCUUUAUUUCCCAACAGAGGAUUGAGCAUCA
B22: chr3:150289932:150289933:+_ENSG00000144895_ENST00000460851|hu_mus|FALSE|FALSE (ssRNA)
RNA: GGGAGUUCUACAGUCCGACGAUCCUUGUAGUUUUUAACAUCCCAUACUUCCAUUUGUCCUCGAAGAUUUCCAAAUCCAGCCAGCACUAAUAUAUGUCCAUGAGGGCUAUAGAAGGCUGCGUUGCGAGGACCAGUCCCAAAGUCCAACAGAGGAUUGAGCAUCA

What follows are binders tested against T1, UNK ZnF1-3 (assay: nsRBNS (natural sequence RNA bind-n-seq); RBNS binding buffer (assumed for nsRBNS): 25 mM Tris pH 7.5, 150 mM KCl, 3 mM MgCl2, 0.01% Triton X-100, 500 ug/ml BSA, 20 U/ml SUPERase-In, 4 C; UNK is unkempt and MSI1 is Musashi-1; names of the RNAs are library labels; protein concentration not given here; high values mean tight binding).

Binder | binding signal [enrichment R]
B1 | 0.462
B2 | 0.614
B3 | 0.911
B4 | 0.83
B5 | 0.504
B6 | 0.628
B7 | 1.6
B8 | 1.13
B9 | 0.518
B10 | 0.903
B11 | 0.706
B12 | 0.907
B13 | 0.903
B14 | 1.86
B15 | 0.391
B16 | 1.78
B17 | 1.29
B18 | 0.579
B19 | 0.585
B20 | 0.675
B21 | 0.384
B22 | 1.16
